Laboratory results: the supplement of paper PMC7826260
The other results are listed elsewhere or left out. Cleavage of a single-stranded DNA pool by Rep nickase domains was read by sequencing (1 h at 37 °C, 3 µM enzyme); the outer parts of the 90-letter strands are left off. A value is the log2 ratio of uncut reads to the pool without enzyme; more negative means more cut, near 0 not cut, and no call is made. Because reads are shares of a total, they shift together; uncut strands gain when others are lost, and binding without cutting may add a little.

How the values were obtained:
Experiment in all cases: uncleaved DNA left, log2 of reads against the no-enzyme library (log2 ratio); higher = less cleavage (more negative = more Rep cleavage of the k-mer); sequences stand for … in CTCGTCCG…ACCGGAGA
[1] = test system: T1, Rep nickase domain of Muscovy duck circovirus
T1 sequence (residues 1-111 of Rep, tag left off): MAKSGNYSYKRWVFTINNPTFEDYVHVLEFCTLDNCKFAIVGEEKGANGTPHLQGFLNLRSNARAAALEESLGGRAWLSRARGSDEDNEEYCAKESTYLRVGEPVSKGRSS
Protocol: (§1)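 A pool of 90-nt single-stranded DNAs with seven random bases just before the constant AC of the nick site (name = the seven bases) was cut by 3 µM recombinant His6-SUMO-tagged Rep nickase domain (300 nM DNA, 50 mM HEPES pH 8.0, 50 mM NaCl, 1 mM MnCl2, 1 h, 37 °C, three replicates). Uncut DNA was amplified and sequenced.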

[2] = test system: T2, Rep nickase domain of banana bunchy top virus
T2 sequence (residues 1-94 of Rep, tag left off): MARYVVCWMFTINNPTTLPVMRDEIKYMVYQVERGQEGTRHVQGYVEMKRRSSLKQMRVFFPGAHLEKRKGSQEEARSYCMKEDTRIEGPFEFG
Protocol: as §1

[3] = test system: T3, Rep nickase domain of cabbage leaf curl virus
T3 sequence (residues 1-116 of Rep, tag left off): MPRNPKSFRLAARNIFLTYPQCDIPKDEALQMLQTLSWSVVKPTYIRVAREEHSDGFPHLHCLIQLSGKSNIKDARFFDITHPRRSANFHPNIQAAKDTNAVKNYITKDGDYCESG
Protocol: as §1

[4] = test system: T4, Rep nickase domain of chickpea chlorotic dwarf virus
T4 sequence (residues 1-124 of Rep, tag left off): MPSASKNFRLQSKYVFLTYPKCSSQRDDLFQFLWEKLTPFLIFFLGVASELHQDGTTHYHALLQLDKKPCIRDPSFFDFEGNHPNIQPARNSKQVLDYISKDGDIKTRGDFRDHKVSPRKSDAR
Protocol: as §1

[5] = test system: T5, Rep nickase domain of faba bean necrotic yellows virus
T5 sequence (residues 1-98 of Rep, tag left off): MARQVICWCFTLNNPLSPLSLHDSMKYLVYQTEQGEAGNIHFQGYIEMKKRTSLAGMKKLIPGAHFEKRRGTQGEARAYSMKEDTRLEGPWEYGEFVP
Protocol: as §1

[6] = test system: T6, Rep nickase domain of maize striate mosaic virus
T6 sequence (residues 1-117 of Rep, tag left off): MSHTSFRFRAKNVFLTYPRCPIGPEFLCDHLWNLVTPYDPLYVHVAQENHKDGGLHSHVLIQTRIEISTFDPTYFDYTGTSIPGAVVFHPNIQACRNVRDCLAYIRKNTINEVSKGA
Protocol: as §1

[7] = test system: T7, Rep nickase domain of porcine circovirus 2
T7 sequence (residues 2-116 of Rep, tag left off): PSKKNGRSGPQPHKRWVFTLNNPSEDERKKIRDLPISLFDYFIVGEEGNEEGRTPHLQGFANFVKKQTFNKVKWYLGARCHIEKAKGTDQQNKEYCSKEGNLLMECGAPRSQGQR
Protocol: as §1

[8] = test system: T8, Rep nickase domain of tomato golden mosaic virus
T8 sequence (residues 1-124 of Rep, tag left off): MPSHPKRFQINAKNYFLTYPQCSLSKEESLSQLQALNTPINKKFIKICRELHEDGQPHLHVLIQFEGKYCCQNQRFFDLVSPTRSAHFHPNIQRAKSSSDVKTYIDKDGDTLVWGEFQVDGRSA
Protocol: as §1

[9] = test system: T9, Rep nickase domain of tomato yellow leaf curl virus
T9 sequence (residues 1-136 of Rep, tag left off): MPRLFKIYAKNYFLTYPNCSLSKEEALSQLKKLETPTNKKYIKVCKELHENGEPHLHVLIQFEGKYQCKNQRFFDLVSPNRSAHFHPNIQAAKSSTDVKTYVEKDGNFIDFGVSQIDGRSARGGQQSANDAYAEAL
Protocol: as §1

[10] = test system: T10, Rep nickase domain of wheat dwarf virus
T10 sequence (residues 1-137 of Rep, tag left off): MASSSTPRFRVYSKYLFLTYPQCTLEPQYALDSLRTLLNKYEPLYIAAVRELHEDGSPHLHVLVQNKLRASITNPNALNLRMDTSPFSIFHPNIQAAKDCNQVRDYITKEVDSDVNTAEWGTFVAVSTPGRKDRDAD
Protocol: as §1

| Sequence | uncleaved DNA left (log2) [1] | uncleaved DNA left (log2) [2] | uncleaved DNA left (log2) [3] | uncleaved DNA left (log2) [4] | uncleaved DNA left (log2) [5] | uncleaved DNA left (log2) [6] | uncleaved DNA left (log2) [7] | uncleaved DNA left (log2) [8] | uncleaved DNA left (log2) [9] | uncleaved DNA left (log2) [10] |
| --- | --- | --- | --- | --- | --- | --- | --- | --- | --- | --- |
| GGAAGTA | 0.164 | 0.204 | 0.69 | 1.42 | 0.0393 | 1.98 | 0.286 | 0.0672 | 0.153 | 0.214 |
| TCGGTGG | 0.115 | -0.00167 | 0.187 | 0.273 | -0.091 | 0.112 | 0.104 | 0.0527 | -0.246 | -0.0175 |
| GGGCAAT | 0.0807 | 0.0907 | 0.861 | 2.01 | 0.0519 | 2.32 | 0.16 | 0.0512 | -0.0356 | 0.162 |
| TTGACAA | 0.0524 | -0.000746 | 0.397 | 0.997 | -0.148 | 1.24 | 0.0795 | 0.00658 | 0.0342 | 0.0336 |
| CTCAAGA | -0.0707 | -0.112 | -0.0828 | -0.248 | -0.138 | -0.952 | 0.0905 | 0.0424 | -0.00493 | 0.00179 |
| GCTTAAG | -0.0579 | 0.071 | -0.496 | -0.49 | 0.104 | -1.04 | 0.23 | -0.0101 | 0.0575 | -0.0935 |
| TCAGAAG | 0.104 | 0.145 | -0.592 | -0.6 | 0.239 | -0.912 | 0.266 | 0.0402 | 0.107 | -0.0288 |
| TTTTCGA | -0.0553 | -0.0448 | -0.322 | -0.652 | -0.00569 | -1.16 | 0.0187 | -0.0925 | -0.0206 | -0.0771 |
| TGCTATC | -0.0622 | -0.019 | 0.271 | 0.207 | -0.0231 | 0.344 | -0.00394 | 0.00258 | -0.0505 | 0.0482 |
| GTTAAGC | 0.0213 | 0.0159 | 0.141 | 0.489 | 0.041 | 0.129 | -0.00663 | -0.0182 | 0.057 | -0.0264 |
| AACTAGC | 0.0785 | -0.0619 | -0.562 | -0.712 | -0.00802 | -1.21 | -0.0361 | -0.104 | -0.0307 | -0.111 |
| CCGCGCC | -0.0749 | -0.299 | -0.629 | -0.65 | -0.255 | -0.701 | -0.202 | -0.262 | -0.128 | -0.303 |
| TCGACGC | -0.101 | -0.099 | -0.133 | 0.253 | -0.107 | -0.00494 | 0.013 | -0.244 | -0.164 | -0.0903 |
| CAGGGGG | 0.114 | 0.128 | -0.205 | -0.0857 | 0.0976 | -0.423 | 0.259 | 0.199 | 0.065 | 0.0125 |
| TACCTAG | 0.123 | 0.0885 | -0.841 | -1.05 | 0.216 | -1.01 | -0.512 | 0.061 | 0.11 | 0.149 |
| TGTTTCC | -0.0214 | -0.0606 | 0.308 | 0.374 | -0.044 | 1.03 | -0.00281 | -0.0587 | 0.0406 | -0.108 |
| GTCCGCT | 0.00942 | -0.0314 | 0.167 | 0.458 | -0.0616 | 0.6 | -0.0118 | -0.0103 | 0.0112 | 0.0689 |
| GCATCGA | -0.00403 | -0.0371 | -0.343 | -0.424 | 0.0381 | -0.826 | 0.0887 | 0.0829 | 0.0347 | -0.0557 |
| GTCACGC | -0.0462 | 0.065 | 0.178 | 0.507 | -0.0318 | 0.555 | -0.0105 | 0.00776 | -0.0358 | 0.0261 |
| TCTAGGG | 0.0506 | -0.0281 | 0.154 | 0.408 | 0.0504 | -0.0795 | 0.0835 | 0.0893 | -0.0727 | -0.00328 |
| CCGGCAT | 0.141 | 0.164 | 0.536 | 1.02 | 0.0348 | 1.32 | 0.052 | 0.068 | 0.018 | 0.0518 |
| TTGGAAC | 0.0537 | 0.103 | 0.354 | 0.391 | 0.0263 | 0.876 | 0.0664 | -0.0661 | -0.0359 | 0.0345 |
| ATGGCGG | 0.00146 | -0.0455 | -0.318 | -0.116 | 0.00682 | -0.433 | 0.144 | 0.0429 | -0.0911 | -0.0988 |
| GTTGTCA | 0.063 | 0.0768 | 0.346 | 0.905 | 0.0394 | 1.77 | 0.0852 | 0.173 | 0.0442 | 0.102 |
| ATACGCA | 0.117 | -0.00335 | -0.317 | -0.949 | 0.0273 | -0.933 | 0.0341 | 0.0117 | 0.0255 | -0.0416 |
| TTATGTA | -0.547 | -0.00744 | 0.0523 | -0.969 | 0.0672 | -0.203 | -0.46 | -0.11 | 0.0854 | 0.000106 |
| ACGTAGG | 0.0401 | 0.0442 | -0.338 | -0.237 | -0.0184 | -1.02 | 0.0257 | 0.107 | -0.0988 | -0.0779 |
| TCTCCTT | -0.0627 | -0.222 | -0.026 | -1.49 | -0.0509 | 0.485 | -0.496 | -0.217 | -0.144 | -0.0908 |
| CCGCTCC | 0.0505 | 0.00658 | 0.169 | 0.119 | 0.051 | 0.573 | 0.0499 | -0.0943 | -0.0314 | -0.161 |
| GCATGAG | 0.0907 | -0.00367 | -0.51 | 0.185 | 0.149 | -0.73 | 0.165 | 0.0239 | 0.109 | -0.0002 |
